Experimental data: PMC4336329 (PLoS ONE, 2015)
Hit rate of the full screen: of about 310,000 compounds, about 2,200 (0.71%) showed an effect of 50% or more. Effects have a minus sign here. Some of the results follow.

Biological target: human ether-à-go-go-related gene (hERG) potassium channel (human, UniProt Q12809)
Experiment: primary screen, population patch clamp on CHO cells stably expressing hERG

Sequence of human ether-à-go-go-related gene (hERG) potassium channel (Q12809 whole entry, looked up): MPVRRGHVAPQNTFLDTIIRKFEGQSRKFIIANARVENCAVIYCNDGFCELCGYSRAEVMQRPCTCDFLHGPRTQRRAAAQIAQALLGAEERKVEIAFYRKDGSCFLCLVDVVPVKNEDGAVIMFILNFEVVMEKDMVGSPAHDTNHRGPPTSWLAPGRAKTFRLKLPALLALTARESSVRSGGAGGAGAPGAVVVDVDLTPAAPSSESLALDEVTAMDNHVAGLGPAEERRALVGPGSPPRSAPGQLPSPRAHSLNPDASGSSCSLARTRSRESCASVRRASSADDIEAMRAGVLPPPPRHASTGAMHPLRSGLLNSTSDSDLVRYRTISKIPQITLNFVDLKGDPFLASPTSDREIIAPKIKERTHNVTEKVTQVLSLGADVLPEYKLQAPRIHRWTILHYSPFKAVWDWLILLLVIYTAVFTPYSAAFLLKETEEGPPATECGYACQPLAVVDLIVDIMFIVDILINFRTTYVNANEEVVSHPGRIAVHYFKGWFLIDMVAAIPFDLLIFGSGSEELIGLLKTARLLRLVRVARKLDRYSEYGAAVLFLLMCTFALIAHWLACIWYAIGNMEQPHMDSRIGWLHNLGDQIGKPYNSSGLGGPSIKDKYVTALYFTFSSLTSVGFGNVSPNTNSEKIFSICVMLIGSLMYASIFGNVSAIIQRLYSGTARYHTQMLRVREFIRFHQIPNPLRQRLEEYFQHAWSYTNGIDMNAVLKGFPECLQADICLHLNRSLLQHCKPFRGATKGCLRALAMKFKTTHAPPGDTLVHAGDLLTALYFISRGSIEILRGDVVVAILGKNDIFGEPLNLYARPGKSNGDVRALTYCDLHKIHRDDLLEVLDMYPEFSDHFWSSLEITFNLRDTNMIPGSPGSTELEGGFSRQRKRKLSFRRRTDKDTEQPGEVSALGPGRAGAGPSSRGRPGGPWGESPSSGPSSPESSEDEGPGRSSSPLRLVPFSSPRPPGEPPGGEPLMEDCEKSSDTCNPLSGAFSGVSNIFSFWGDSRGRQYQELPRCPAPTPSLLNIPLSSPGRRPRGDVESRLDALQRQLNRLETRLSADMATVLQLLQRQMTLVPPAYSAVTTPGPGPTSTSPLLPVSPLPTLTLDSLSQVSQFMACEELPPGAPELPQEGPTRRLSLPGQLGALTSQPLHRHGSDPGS

SMILES | hERG current change (%, negative = inhibition) at 1uM [%]
C=CCn1c(Cc2cccs2)nnc1SCC(=O)Nc1ccc(C(=O)OCC)cc1 | -8.22
CSCCC(NS(=O)(=O)c1ccc(C)c(C(=O)O)c1)C(=O)O (centres unmarked) | 10.4
CCOC(=O)N1CCN(CC(=O)c2ccc3c(c2)CCN3C(C)=O)CC1 | 11.6
CC(=O)c1cccc(N(C(=O)c2ccccn2)C(C(=O)NC2CCCCC2)c2cccs2)c1 (centres unmarked) | 5.83
CN(CC1CCN(CCc2cccc(C(F)(F)F)c2)CC1)C(=O)c1ccccc1 | -56.1
Cc1ccc(OCCC(=O)NNC(=O)c2cc(C)oc2C)cc1 | 11.9
O=[N+]([O-])c1ccc(N(c2ccccc2)c2ccccc2)cc1 | 8.63
O=C(C1CCCN(CCCc2ccccc2)C1)N1CCCCC1 (centres unmarked) | -5.07
CC(SCc1ccccc1)C(=O)NN=C1CCN(C)CC1 (centres unmarked) | 4.75
NS(=O)(=O)c1ccc(CCNC(=O)c2cc([N+](=O)[O-])ccc2N2CCCCC2)cc1 | 1.53
O=C(CC1SC(=Nc2ccccc2)N(CCc2ccccn2)C1=O)Nc1ccc(F)cc1 (centres unmarked) | 4.98
COc1cccc(CNC(=O)Cn2ncn3cccc3c2=O)c1OC | 8.95
COc1ccc(-c2csc(N(CCCN(C)C)C(=O)c3ccc(Br)cc3)n2)cc1.O=C(O)C(=O)O | -1.62
CN(C)C(=O)c1ccc(NC(=O)COC(=O)Cn2cc(C(F)(F)F)ccc2=O)cc1 | 2.08
O=C(NC1C=CS(=O)(=O)C1)c1sc2ccccc2c1Cl (centres unmarked) | -5.87
Cc1c(Cl)c([N+](=O)[O-])nn1CC(=O)NC1CCCCC1 | 10.8
Cn1c(=O)c2c(n3cnnc13)-c1ccccc1CC21CCCC1 | 6.55
Cc1nn(C)cc1CN(C)C(=O)c1cc2nc(-c3ccco3)cc(C(F)(F)F)n2n1 | 5.78
CCCCOc1ccc(N2C(=O)CC(NCCc3ccc(S(N)(=O)=O)cc3)C2=O)cc1 (centres unmarked) | 0.222
N=c1ncn(CC(O)CO)c2nc(N3CCOCC3)[nH]c12 (centres unmarked) | 13.2
CSCCC(NS(=O)(=O)c1ccc(Cl)cc1)C(=O)OCC(=O)NC1CCCCC1 (centres unmarked) | 3.69
CCc1cccc(CC)c1NC(=O)CN1CCN(S(=O)(=O)c2ccccc2)CC1 | 11.6
OC(CNCc1ccccc1)(c1ccccc1)c1ccccc1 | 5.98

SMILES | hERG current change (%, negative = inhibition) at 1uM [%]
O=C(Nc1ccc(S(=O)(=O)N2CCCCCC2)cc1)c1ccc(Br)o1 | 0.819
Cc1ccc(NC(=O)c2ccn(C(=O)Nc3ccccc3)n2)c(C)c1 | 13.9
O=C1C=C(O)C(n2cncn2)C(c2ccc3c(c2)OCO3)C1 (centres unmarked) | 7.13
COc1ccc(CNC(=O)c2coc(=O)c3ccccc23)cc1 | -5.65
O=C(NCc1ccco1)c1cnc2n(c1=O)CCS2 | 0.498
O=S(=O)(NCCCCCCNS(=O)(=O)c1c(F)cccc1F)c1ccc2c(c1)OCCO2 | 11.9
CC(C)Oc1ccc(C(CC(=O)N(C)CCC#N)c2ccc(F)cc2)cc1 (centres unmarked) | -1.64
C/C(=N\NS(=O)(=O)c1ccc(Cl)c([N+](=O)[O-])c1)c1cc2ccccc2o1 | 11.4
Cn1nccc1C(=O)Nc1sc2c(c1C(N)=O)CCCC2 | 1.14
O=C(NCc1ccncc1)Nc1ccc(F)cc1 | 16.5
CC(=C\c1ccccc1)/C=C1/SC(=S)N(CCC(=O)O)C1=O | 14
CCc1ccccc1NC(=O)N[C@H](C(=O)O)C(C)CC (some centres unmarked) | -4.75
CCc1ccc2nc(N)sc2c1 | 12.2
CN(C(=O)c1ccc(S(=O)(=O)NC2CCCC2)cc1)C1CCCCC1 | 3.65
Cc1ccc(C(=O)Nc2cccc(S(=O)(=O)N(C)c3ccccc3)c2)o1 | -3.77
CCOC(=O)CS(=O)(=O)c1nc(-c2ccccc2)cc(C(F)(F)F)n1 | 2.35
C=CCOC(=O)C1=C(C)NC(SCC(=O)Nc2ccccc2)=C(C#N)C1c1ccco1 (centres unmarked) | 11.6
CS(=O)(=O)N(CC(=O)NC1CCCC1)Cc1ccc(Cl)cc1 | -2.87
CC1=C/C(=N\Nc2ccccc2[N+](=O)[O-])CC(C)(C)C1 | 1.17
CCn1c2ccc(C)cc2c2nnc(SCCN3CCOCC3)nc21 | 4.8
Cn1nc2sc3ccccc3n2c(=O)c1=O | 14.5
CSCCC(NC(=O)c1ccco1)C(=O)NCC(C)(C)N1CCOCC1 (centres unmarked) | 7.73
Cc1ccc(NC(=O)COC(=O)C2=COCCO2)c([N+](=O)[O-])c1 | 16.9

SMILES | hERG current change (%, negative = inhibition) at 1uM [%]
COc1cccc(-n2c(Cn3nc(C(F)(F)F)cc3C)n[nH]c2=S)c1 | 9.46
CC1(C)CC(NC(=O)c2cccc(S(=O)(=O)Nc3cccc(Cl)c3)c2)CC(C)(C)N1 | 9.92
O/N=C/c1cc(Cl)ccc1OCc1cccc2ccccc12 | 1.24
Fc1ccccc1CNc1ncnc2sccc12 | 12.6
Cn1c(=O)n(Cc2ccc(F)cc2)c(=O)c2c1nc1n2CCCN1C1CCCCC1 | 11.5
COC(=O)CCC(=O)Nc1cccc([N+](=O)[O-])c1 | 13.9
O=C(CSc1ccccc1)NC1CCCCCC1 | -12.3
Cc1cc(C(=O)Nc2ccc(N3CCCC3)c(Cl)c2)ccc1[N+](=O)[O-] | 6.29
COc1cc(-c2nnc3sc(-c4ccco4)nn23)cc(OC)c1OC | 4.14
CCCCOc1ccc(/C(N)=N/O)cc1 | 3.05
CCOc1ccc(NC(=O)c2c(NC(=O)CN3CCN(C)CC3)sc3c2CCC3)cc1 | -28.2
O=C(Nc1ccnn1C1CCN(Cc2cccc(O)c2)CC1)C1CCCC1 | -14.2
O=C(COC(=O)CCc1ccc(S(=O)(=O)N2CCOCC2)cc1)NC(=O)NC1CCCCC1 | 10.2
CSc1cccc(NC(=S)Nc2ccc(F)cc2)c1 | 11.6
Cc1ccc(C(=O)CN(C(=O)c2ccc(Cl)c(Cl)c2)N2C(=O)C3C4C=CC(C4)C3C2=O)cc1 (centres unmarked) | 12.5
COc1cc(OC)cc(C(=O)Nn2cc(C(=O)Nc3ccccc3F)c3ccccc3c2=O)c1 | -5.09
CCCCN(C(=O)CC1OC(=O)c2ccccc21)c1c(N)n(CCCC)c(=O)[nH]c1=O (centres unmarked) | 15.5
O=C(Nc1ccc(S(=O)(=O)N2CCCCC2)cc1)c1cccnc1Cl | 17.1
O=C(c1ccccc1)N1CCN(Cc2c[nH]c3ccccc23)CC1 | -1.02
O=C1CCCN1CCCNc1ncnc2sccc12 | 3.95
Cn1nc(C(=O)NCc2ccccn2)c2ccccc2c1=O | 4.74
CCOc1ccc(C(=O)NCC(=O)NCC(c2cccs2)N2CCOCC2)cc1 (centres unmarked) | 15.2
CCN(CC)C1=NC=CC(c2ccccc2)=CC1C (centres unmarked) | -34

SMILES | hERG current change (%, negative = inhibition) at 1uM [%]
CCOC(=O)N1CCN(C(=O)c2ccc(C)c(S(=O)(=O)Nc3ccccc3)c2)CC1 | 17
COc1ccccc1CNS(=O)(=O)c1ccc2c(c1)N(C(C)=O)CC(C)S2 (centres unmarked) | 11
CCOC(=O)C1=C(C)NC(=O)NC1c1ccco1 (centres unmarked) | 8.11
CCCN1CCN(S(=O)(=O)c2ccc3c(c2)CC(C)N3C(=O)C2CC2)CC1 (centres unmarked) | 16.3
CCOC(=O)c1ccc(N2CC(O)=C(c3nc4ccccc4c(=O)[nH]3)C2=N)cc1 | 3.34
N=c1c2c(ncn1CCN1CCOCC1)Oc1cc(O)ccc1C2c1ccccc1 (centres unmarked) | -5.86
CCC(C)C(=O)NCCc1ccc(S(N)(=O)=O)cc1 (centres unmarked) | 12
COC(=O)[C@@H](NC(=O)Nc1cccc(OC)c1)C(C)C | 7.64
CCCc1cc(C(=O)Nc2cc(C)nn2-c2ccccc2)no1 | 9.97
Cc1oc2ccc(O)cc2c1C(=O)c1ccc(F)cc1 | 5.44
O=C(COc1ccc(Cl)cc1)NNC(=O)c1ccc2c(=O)n3c(nc2c1)CCC3 | -1.63
O=C(Nc1ccc(-n2cnnn2)cc1)C(c1ccccc1)c1ccccc1 | 5.11
Cc1ccc(-n2nnnc2SCC(=O)N2CCN(C(=O)c3ccco3)CC2)c(C)c1 | -38.8
NS(=O)(=O)c1cccc(NC(=O)c2cccs2)c1 | 19
Cc1nc2ccccn2c1C(=O)CSc1ccccc1Cl | -2.69
CCCCn1cnc2cc(NCc3ccncc3)ccc21 | 9.76
CN(C)CCNC(=O)c1ccc(COCC(F)(F)F)cc1 | 7.92
O=C(O)c1ccc2c(=O)n3c(nc2c1)/C(=C/c1ccc(Cl)cc1Cl)CC3 | 8.65
Cc1ccc(NC(=O)C2CCN(S(=O)(=O)c3ccc(N4CCCC4=O)cc3)CC2)cc1Cl | 16.6
O=C(CSCCc1ccccn1)Nc1ccccn1 | 6.12
